Assay results published in PubChem BioAssay AID651820 (National Center for Advancing Translational Sciences (NCATS), 2012).
In all, about 340,000 compounds went through this assay and about 12,000 (3.5%) were called active. The shares of active, inactive and inconclusive entries below differ from those in the screen. Calls come from the whole dose curve; as a rule, active = well fitted inhibition curve with a large enough effect; inconclusive = small, poorly fitted or top-dose-only effect, or another doubt; inactive = no such curve, though single readings can be large or run the other way. Potencies of inconclusive entries are left out as doubtful fits.

assay: qHTS Assay for Inhibitors of Hepatitis C Virus (HCV); settings: Huh7.5.1 HCVcc-Cre (HCVcc is cell-culture hepatitis C virus) infection, luciferase reporter, 44 h; activity change, negative = inhibition: at 41.8 µM (top of the series)
In short: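 Seed cells (1,000/well) for 4 h; treat with compound and infect with HCVcc-Cre, moi about 0.5. Incubate 44 h, then detect luciferase activity.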
% is set by controls: 0 for no effect and ±100 for the full control effect; potency is the fitted concentration of half-maximal effect; tags give direction and shape of the fitted curve.

SMILES	Potency	activity change, negative = inhibition
CC(=O)Oc1ccc(N2C(=O)c3cccc4c([N+](=O)[O-])ccc(c34)C2=O)cc1	inconclusive [inhibitor, single point]	–
O=C(Nc1ccccc1N1CCCCC1)c1ncoc1-c1ccc(F)cc1	inconclusive [inhibitor, full curve]	–
CCCCOc1ccc(C(=O)Nc2ccc(N3CCN(C)CC3)cc2)cc1	inconclusive [inhibitor, single point]	–
Cc1ccc(NC(=O)[C@H](NC(=O)[C@@H]2Cc3ccccc3CN2)c2ccccc2)cc1	inactive	–
COc1ccc(/C=N/Nc2nc3ccccc3s2)cc1O	inactive	–
CC1CCC2(CC1)NC(=O)N(CC(=O)Nc1cccc(S(=O)(=O)N3CCCCC3)c1)C2=O (configuration not stated)	active: 25.1 µM	–
O=C(Cn1c2ccccc2c(=O)c2ccccc21)N/N=C/c1ccc(N2CCCC2)c([N+](=O)[O-])c1	inconclusive [inhibitor, single point]	–
COc1ccc(NC(=O)c2ccc(CNc3c(N4CCCC4)c(=O)c3=O)cc2)cc1Cl	inconclusive [inhibitor, full curve]	–
COc1ccc(CCN2C(=NC(=O)C(C)C)SC3CS(=O)(=O)CC32)cc1 (configuration not stated)	inactive	–
CCN1CCCC1CNC(=O)c1csc2c1CCCC2 (configuration not stated)	inconclusive [inhibitor, single point]	–
Cn1c(=S)sc2ccc3ccccc3c21	inconclusive [inhibitor, single point]	–
CNC(=S)N1CCN(c2nc(-c3ccc(Cl)cc3)cs2)CC1	inconclusive [inhibitor, full curve, poor fit]	–
COc1ccc(Nc2nc(C)nc3c2nnn3Cc2ccccc2)cc1OC	inconclusive [inhibitor, partial curve]	–
CCOc1ccc(CN(C)C(=O)CNC(=O)c2ccc3ccccc3c2)cc1OC	inconclusive [inhibitor, single point]	–
CCn1c(=O)c(C(=O)NCc2ccc(F)cc2)c(O)c2ccccc21	inconclusive [inhibitor, single point]	–
Cc1cc(NCCCN2CCOCC2)n2ncc(-c3ccc(Cl)cc3)c2n1	active: 12.6 µM	–
CCC(=O)c1c(NCCc2ccccc2)cc(C)oc1=O	inconclusive [inhibitor, full curve, poor fit]	–
COC(=O)c1cn(C(C)C(=O)NCc2ccco2)c2ccccc12 (configuration not stated)	inconclusive [inhibitor, single point]	–
CCOC(=O)c1cc(-c2ccc(OC)cc2)nc2c1c(C)nn2CCC#N	inconclusive [inhibitor, single point]	–
COc1ccc(-c2nnc3n(CCc4ccccc4)c(=O)c4ccccc4n23)cc1OC	inconclusive [inhibitor, single point]	–
C/C(=N\NC(=O)c1nn(C)cc1Br)c1cccc(NC(=O)C(C)(C)C)c1	inconclusive [inhibitor, partial curve]	–

SMILES	Potency	activity change, negative = inhibition
COc1ccc2ccccc2c1CNC(=O)CC1C(=O)NCCN1CC(C)C (configuration not stated)	inconclusive [inhibitor, single point]	–
CC[C@@H](C)[C@@H](C(=O)N1CCNCC1)n1cc(CCC(=O)O)nn1	inactive	–
O=C1NC[C@H](Cc2ccccc2)N(CC2CCN(CCc3ccc(-c4ccccc4)cc3)CC2)C1=O	inconclusive [inhibitor, full curve]	–
CSc1ccc(CN(C)C(=O)CNC(=O)CNS(=O)(=O)c2ccc(C)c(C)c2)cc1	inconclusive [inhibitor, partial curve]	–
NS(=O)(=O)c1ccc(N/N=C/c2cn(-c3ccccc3)nc2-c2ccccc2)c([N+](=O)[O-])c1	active: 10 µM	–
CCCNC(=O)CSc1nnc(-c2ccccc2Br)n1-c1cccc(C(F)(F)F)c1	–	inconclusive: -62.2% [inhibitor]
Cc1ccc(-n2ncc3c(NCc4cccnc4)ncnc32)cc1C	inconclusive [inhibitor, partial curve]	–
COc1ccc(-c2csc(NC(=O)C3COc4ccccc4O3)n2)cc1OC (configuration not stated)	active: 11.2 µM	–
COC(=O)N/N=C/c1cn(CC(C)COc2ccccc2)c2ccccc12 (configuration not stated)	inconclusive [inhibitor, single point]	–
CN(C(=O)CSc1nc(-c2ccc(C(C)(C)C)cc2)c(C#N)c(=O)[nH]1)C1CCCCC1	inactive	–
CCOC(=O)c1[nH]c(C)c(C(=O)Nc2ccc3c(c2)OCCO3)c1C	inconclusive [inhibitor, single point]	–
CCNC(=S)N1CCN(c2nc(-c3cccc(OC)c3)cs2)CC1	inconclusive [inhibitor, single point]	–
C=C(C)CNC(=S)N/N=C(\C)c1ccc(OC)cc1	inconclusive [inhibitor, partial curve]	–
CC(C)CCNC(=O)C(C)N(C(=O)c1snc(C(N)=O)c1N)c1cnc2ccccc2c1 (configuration not stated)	inconclusive [inhibitor, full curve, poor fit]	–
COc1ccc2c(-c3ccc(S(N)(=O)=O)cc3)c(-c3ccc(S(C)(=O)=O)cc3)sc2c1	active: 25.1 µM	–
COc1ccc(C2=CC(=O)C[C@H](c3ccc(OC)cc3)C2)cc1	inconclusive [inhibitor, single point]	–
COc1cc(NC(=O)COC(=O)c2[nH]c(C)c(C(C)=O)c2C)cc(OC)c1	active: 10 µM	–
COC(=O)C1=C(c2c(C)noc2C)C[C@@H]2CC[C@H]1N2C(=O)N1CCC(O)(c2ccc(Cl)cc2)CC1	inactive	–
COc1ccc(-c2c(-c3ccsc3)oc3ccc(N4CCOCC4)cc23)cn1	inconclusive [inhibitor, partial curve]	–
COc1ccc(N2CCc3c(C)nc4c(OC)cc(OC)cc4c32)cc1	active: 12.6 µM	–
CN1CCN(CCNC(=O)Nc2ccc(Cl)cc2)CC1	inconclusive [inhibitor, partial curve]	–
